Measured values published in publication PMC4336329 (PLoS ONE, 2015).
The whole screen tested about 310,000 compounds, of which about 14,000 (4.5%) showed an effect of 50% or more. Effects have a minus sign here. The list shows a part of the results.

molecular target: human ether-à-go-go-related gene (hERG) potassium channel (human, UniProt Q12809); assay: primary screen, population patch clamp on CHO cells stably expressing hERG
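Note: peak tail current of the secondary pulse compared with the same well before compound.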

Chain of human ether-à-go-go-related gene (hERG) potassium channel (Q12809 whole entry, looked up): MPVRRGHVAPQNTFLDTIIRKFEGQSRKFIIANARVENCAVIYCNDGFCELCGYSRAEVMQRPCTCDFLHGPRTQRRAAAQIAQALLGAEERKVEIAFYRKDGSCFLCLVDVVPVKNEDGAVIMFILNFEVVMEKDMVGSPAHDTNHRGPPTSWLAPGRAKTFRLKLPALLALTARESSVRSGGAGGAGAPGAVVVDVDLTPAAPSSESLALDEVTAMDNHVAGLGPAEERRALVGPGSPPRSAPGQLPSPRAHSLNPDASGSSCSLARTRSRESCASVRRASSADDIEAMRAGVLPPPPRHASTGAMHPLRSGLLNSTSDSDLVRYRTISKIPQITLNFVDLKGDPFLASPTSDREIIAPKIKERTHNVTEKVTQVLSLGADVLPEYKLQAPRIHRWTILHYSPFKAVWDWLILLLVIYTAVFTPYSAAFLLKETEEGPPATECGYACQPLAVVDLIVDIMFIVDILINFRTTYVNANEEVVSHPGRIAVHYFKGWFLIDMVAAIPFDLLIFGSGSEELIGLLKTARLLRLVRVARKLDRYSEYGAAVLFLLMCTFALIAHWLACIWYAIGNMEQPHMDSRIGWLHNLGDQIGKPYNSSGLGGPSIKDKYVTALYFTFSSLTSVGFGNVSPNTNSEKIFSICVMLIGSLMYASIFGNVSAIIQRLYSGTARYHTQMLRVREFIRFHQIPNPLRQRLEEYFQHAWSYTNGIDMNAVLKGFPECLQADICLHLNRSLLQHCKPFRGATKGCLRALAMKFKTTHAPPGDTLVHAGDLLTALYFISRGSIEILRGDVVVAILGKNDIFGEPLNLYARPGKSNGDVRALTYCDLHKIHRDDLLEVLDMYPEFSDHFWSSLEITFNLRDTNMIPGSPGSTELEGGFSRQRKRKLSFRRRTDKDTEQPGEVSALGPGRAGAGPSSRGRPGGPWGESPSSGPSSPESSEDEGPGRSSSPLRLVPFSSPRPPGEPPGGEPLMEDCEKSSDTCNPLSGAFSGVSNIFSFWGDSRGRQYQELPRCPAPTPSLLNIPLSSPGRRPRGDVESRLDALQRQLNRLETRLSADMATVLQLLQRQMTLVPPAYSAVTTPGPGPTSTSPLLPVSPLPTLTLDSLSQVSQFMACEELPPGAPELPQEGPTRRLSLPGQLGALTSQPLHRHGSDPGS

Row | Compound | hERG current change (%, negative = inhibition) at 10uM [%]
1 | CCN1C(=O)/C(=C2/C(=O)N3c4c(cc(OC(C)=O)cc42)C(C)=CC3(C)C)SC1=S | 3.55
2 | O=C(Cn1cnc2ccccc2c1=O)Nc1nc2ccccc2s1 | 24.5
3 | O=C(CSc1ncccn1)Nc1ccc2c(c1)CCC2 | -4.14
4 | Cc1ccc(C(=O)NNC(=O)C(C)Oc2ccccc2F)cc1S(=O)(=O)N1CCOCC1 (stereo not shown) | -12.4
5 | N/C(=N\OC(=O)Cc1ccccc1)c1ccccn1 | 1.47
6 | O=C(Cn1c(=O)n(CCCC(=O)NC2CCCC2)c(=O)c2ccccc21)NCCC1=CCCCC1 | -14.1
7 | O=C(COC(=O)[C@@H]1CC(O)CN1S(=O)(=O)c1ccccc1[N+](=O)[O-])Nc1ccc2ccccc2c1 (stereo partly shown) | -1.94
8 | Cc1ccc(S(=O)(=O)N(C)C)cc1NC(=O)COC(=O)Cc1ccsc1 | -79
9 | CCC(C(=O)NCCN1CCOCC1)n1nc(C)n2c(cc3sccc32)c1=O (stereo not shown) | 14.4
10 | COC(=O)COc1ccc2oc(=O)cc(C)c2c1 | 9.16
11 | O=C(COc1ccc(C(=O)c2ccccc2)cc1)NCC1CCCCC1 | -25.6
12 | CCSc1nc(NCCN(C)C)c2c3c(sc2n1)COC(C)(CC)C3 (stereo not shown) | -22.8
13 | CC(=O)N1CCN(c2ccc(NC(=O)c3ccccc3C)cc2)CC1 | -0.597
14 | CCOc1ccc(S(=O)(=O)NCCC(=O)N2CCCC(C)C2)cc1 (stereo not shown) | -23.7
15 | Cc1cc(C)cc(NC(=O)CSc2nc(N)c(NC(=O)c3cccs3)c(=O)[nH]2)c1 | 20
16 | Cc1cccc(C(=O)OCC(=O)Nc2ccc3c(c2)OCCO3)c1 | -0.669
17 | CC1CN(c2ncnc3c2cnn3-c2ccc(Cl)cc2)CC(C)O1 (stereo not shown) | 0.749
18 | CCN(Cc1ccccc1)C(=O)c1cc(S(=O)(=O)N2CCOCC2)cn1C | -0.0169
19 | COC(=O)c1ccc(CSc2nnc(CS(=O)Cc3ccc(Br)cc3)n2-c2ccccc2)cc1 (stereo not shown) | -12
20 | COC(=O)c1ccc(CSc2nnc(NC(=O)c3cc4c(s3)CCCC4)s2)cc1 | 0.385
21 | CCCn1c(=N)n(CC(=O)c2cccs2)c2ccccc21 | -22
22 | COc1cc(-c2nc3ccccn3c2NCc2ccccc2)ccc1SC1CCCCC1.O=C(O)C(F)(F)F | 25.6

Row | Compound | hERG current change (%, negative = inhibition) at 10uM [%]
23 | COc1ccc(N2C(=O)NC(NC(=O)c3cccnc3)(C(F)(F)F)C2=O)cc1 (stereo not shown) | 39.4
24 | Cn1c(C2=C(O)CN(c3ccc4c(c3)OCCO4)C2=N)nc2ccccc21 | -20.1
25 | CCOC(=O)CNC(=O)CSc1nccn1Cc1ccco1 | 4.11
26 | COc1cc(C)c(NC(=O)C2CCN(S(=O)(=O)c3cccs3)CC2)cc1OC | -12.2
27 | O=C(NC(=S)N1CCc2ccccc21)c1ccccc1 | 7.36
28 | Cc1ccc(-n2c(C)nnc2SCC(=O)N(C)C2CCS(=O)(=O)C2)cc1 (stereo not shown) | 12.9
29 | O=C(CSc1nnnn1-c1ccc(Cl)cc1)NNC(=O)c1ccc([N+](=O)[O-])cc1 | -23.2
30 | CCN1C(=O)c2cccc3c(NC(=O)c4ccc(S(=O)(=O)N(C)C)cc4)ccc1c23 | -15.4
31 | COc1ccc(OC)c2c(C)cc(N3CCCN(C)CC3)nc12 | 1.33
32 | Cc1cc(C)cc(C(=O)NCC(=O)NCc2ccc(S(N)(=O)=O)cc2)c1 | 18
33 | CSc1sc(-c2ccnc(SCCS(C)(=O)=O)n2)c(-c2ccccc2)c1C#N | -8.75
34 | CCCNC(=O)Cn1c(=O)/c(=C\c2ccc(-c3ccc([N+](=O)[O-])cc3)o2)s/c1=C\C(=O)C(C)(C)C | 1.64
35 | Cc1cc(Nc2ccc(C(=O)N3CCCCC3)cc2)c2cccc(C)c2n1 | -23.5
36 | Cc1ccc(NC2CCCN(C(=O)c3cnc4ccccn4c3=O)C2)cc1C (stereo not shown) | -3.33
37 | COc1ccc(C(=O)N2CCN(S(=O)(=O)c3ccccc3)CC2)c(OC)c1 | -25.4
38 | Cc1ccc2c(C(=O)CN3CCSCC3)c(C)[nH]c2c1 | 2.57
39 | CC(C)C1COC(c2cccn2Cc2ccccc2Cl)=N1 (stereo not shown) | 18.6
40 | O=C(NC1CCCC1)C1CCC(CNS(=O)(=O)c2ccccc2)CC1 (stereo not shown) | 14.8
41 | C=CCn1c(COc2ccccc2)nnc1SC(C)C(=O)N/N=C/c1cc(Cl)ccc1O (stereo not shown) | 0.335
42 | COc1ccccc1NC(=O)Nc1nc(CC(=O)NCc2cccnc2)cs1 | -13.3
43 | NS(=O)(=O)c1ccc2c(c1)oc(=O)c1cc(S(N)(=O)=O)ccc12 | 9.35
44 | CC(=O)c1c(C)[nH]c(C(=O)Nc2cc(C)cc(C)c2)c1C | -1.09

Row | Compound | hERG current change (%, negative = inhibition) at 10uM [%]
45 | COC1(NC(=O)c2ccccc2)C(C)=CC(=O)C=C1C | 4.34
46 | Cc1ccc(C(=O)NCc2ccccn2)c(Cl)c1 | 19.7
47 | O=C(CNC(=O)c1ccccc1)OCC(=O)N1N=C(c2ccc(Cl)cc2)CC1c1ccco1 (stereo not shown) | -72.5
48 | COc1cc2c(=O)n(CC3CCCO3)c(=O)n(CC(=O)Nc3cccc(Cl)c3)c2cc1OC (stereo not shown) | 27.3
49 | CCN(CC)c1nc(-c2ccc(Cl)cc2)cc(C(F)(F)F)c1C#N | 4.87
50 | O=C(c1cccc([N+](=O)[O-])c1)N1CCN(c2cccc(Cl)c2)CC1 | -57.4
51 | N#CCCn1cc(C(=O)N2CCCCC2)c(-c2ccc([N+](=O)[O-])cc2)n1 | 8.61
52 | CC(=O)c1cccc(NC(=O)c2ccc(C)c(S(=O)(=O)N3CCOCC3)c2)c1 | -3.6
53 | Cc1ccccc1CSCCNC(=O)c1ccc(Cl)c(S(=O)(=O)N2CCOCC2)c1 | -42.2
54 | CC1(C)C2CCC1(CS(=O)(=O)NCCc1c[nH]c3ccccc13)C(=O)C2 (stereo not shown) | -0.243
55 | COc1ccc(S(=O)(=O)N2Cc3ccccc3CC2C(=O)Nc2ccc(O)cc2)cc1OC (stereo not shown) | -14.7
56 | Cc1ccc(C)c(S(=O)(=O)Nc2nc3ccc(S(N)(=O)=O)cc3s2)c1 | 11.9
57 | CC(=O)Nc1cc(C(=O)N2CCN(C)CC2)ccc1Sc1ccc(C)cc1 | -13.5
58 | COc1ccc(N2Cc3ccccc3C2=O)cc1 | 16.2
59 | Cn1nccc1C(=O)Nc1ccn(C23CC4CC(CC(C4)C2)C3)n1 | -11.6
60 | CCN(CC(=O)Nc1cc(S(=O)(=O)N2CCOCC2)ccc1C)Cc1ccccc1 | -31.1
61 | Cn1c(NCc2ccccc2Cl)nc2ccccc21 | -1.9
62 | CC(Sc1nnc(CN2CCCC2)n1Cc1ccccc1)C(=O)Nc1ccc(F)cc1 (stereo not shown) | -61.4
63 | Cc1nc2ncc(Br)cc2[nH]1 | 16.8
64 | O=C(Cc1coc2cc3c(cc12)CCC3)NCC1(N2CCCCC2)CCCCC1 | -76.9
65 | Cc1ccc(N2CC(C(=O)Nc3nccs3)CC2=O)cc1Cl (stereo not shown) | -5.33
66 | CCNc1ccc(C(=O)OCC(=O)NC(C)c2ccccc2)cc1[N+](=O)[O-] (stereo not shown) | 6.5

Row | Compound | hERG current change (%, negative = inhibition) at 10uM [%]
67 | CCOCCCNC(=S)N1CCN(c2nc(-c3ccccc3)cs2)CC1 | 1.6
68 | CCN(C(=O)Cn1nnc(-c2ccccc2)n1)C1CCS(=O)(=O)C1 (stereo not shown) | 4.55
69 | CCN1CCn2c1nc(N1CCOCC1)nc2=O | 9.86
70 | COc1ccc(OC)c(N(CC(=O)Nc2ccccc2F)S(=O)(=O)c2ccccc2)c1 | -2.15
71 | COc1cccc(NC(=O)CN(C)C(=O)CCCc2c[nH]c3ccccc23)c1 | -11.9
72 | CCN1C(=O)C(CC(=O)Nc2ccc(Br)cc2)N(CCCc2ccccc2)C1=S (stereo not shown) | 12.6
73 | CCc1c(C)c(C#N)c2nc3ccccc3n2c1NCCN(C)C | -5.68
74 | Cc1ccc(S(=O)(=O)N[C@@H](C)C(=O)N2CCC(C(=O)N3CCC[C@H]3C(=O)O)CC2)cc1 | 15.5
75 | COCCNC(=O)c1nc2c(nnn2Cc2cc(C)ccc2C)c(=O)[nH]1 | 0.206
76 | CCC(=O)NCCCc1nc(-c2ccccc2)no1 | 5.95
77 | O=C(Nc1ccccc1)OCCNC(=O)c1cccc(Cl)c1 | 1.04
78 | O=C(CCCn1c(=O)[nH]c2ccccc2c1=O)NCCSCc1ccccc1 | 0.15
79 | CCOC(=O)c1c(N2C(=O)Nc3ccccc3N2O)n[nH]c1-c1cccc(OC)c1 | 13.1
80 | CCOc1ccccc1N(C(=O)c1snc(C(N)=O)c1N)C(C(=O)NC1CCCC1)c1ccco1 (stereo not shown) | -55
81 | O=S(=O)(NC(=NCc1ccccc1)c1ccccc1F)c1ccccc1 | -10.3
82 | O=C(CCc1ccccc1)Nc1nc2nc(-c3ccccc3)cc(=O)n2[nH]1 | 5.65
83 | O=C1N/C(=C/c2ccc(N3CCOCC3)o2)C(=O)N1c1cccc(Cl)c1 | -12.1
84 | Cc1ccc(N2CC(NC(=O)N3CCN(C(=O)c4ccco4)CC3)CC2=O)cc1 (stereo not shown) | -52.6
85 | COc1ccccc1CNC(=O)c1cc(S(=O)(=O)N2CCOCC2)cn1C | -0.737
